Reference: PubChem BioAssay AID504332 (National Center for Advancing Translational Sciences (NCATS), 2011)
Screen size: about 350,000 compounds; about 31,000 (8.9%) were called active. This list was built around the results that the source calls inconclusive (neither active nor inactive); the mix of calls is not that of the screen. Calls come from the whole dose curve; as a rule, active = well fitted inhibition curve with a large enough effect; inconclusive = small, poorly fitted or top-dose-only effect; inactive = no such curve, though single readings can be large or run the other way. A potency beside an inconclusive call is a rough fit, not a confirmed value.

Target: Histone-lysine N-methyltransferase EHMT2 (Homo sapiens) (UniProt Q96KQ7)
Chain of UniProt Q96KQ7 (Q96KQ7 whole entry, looked up): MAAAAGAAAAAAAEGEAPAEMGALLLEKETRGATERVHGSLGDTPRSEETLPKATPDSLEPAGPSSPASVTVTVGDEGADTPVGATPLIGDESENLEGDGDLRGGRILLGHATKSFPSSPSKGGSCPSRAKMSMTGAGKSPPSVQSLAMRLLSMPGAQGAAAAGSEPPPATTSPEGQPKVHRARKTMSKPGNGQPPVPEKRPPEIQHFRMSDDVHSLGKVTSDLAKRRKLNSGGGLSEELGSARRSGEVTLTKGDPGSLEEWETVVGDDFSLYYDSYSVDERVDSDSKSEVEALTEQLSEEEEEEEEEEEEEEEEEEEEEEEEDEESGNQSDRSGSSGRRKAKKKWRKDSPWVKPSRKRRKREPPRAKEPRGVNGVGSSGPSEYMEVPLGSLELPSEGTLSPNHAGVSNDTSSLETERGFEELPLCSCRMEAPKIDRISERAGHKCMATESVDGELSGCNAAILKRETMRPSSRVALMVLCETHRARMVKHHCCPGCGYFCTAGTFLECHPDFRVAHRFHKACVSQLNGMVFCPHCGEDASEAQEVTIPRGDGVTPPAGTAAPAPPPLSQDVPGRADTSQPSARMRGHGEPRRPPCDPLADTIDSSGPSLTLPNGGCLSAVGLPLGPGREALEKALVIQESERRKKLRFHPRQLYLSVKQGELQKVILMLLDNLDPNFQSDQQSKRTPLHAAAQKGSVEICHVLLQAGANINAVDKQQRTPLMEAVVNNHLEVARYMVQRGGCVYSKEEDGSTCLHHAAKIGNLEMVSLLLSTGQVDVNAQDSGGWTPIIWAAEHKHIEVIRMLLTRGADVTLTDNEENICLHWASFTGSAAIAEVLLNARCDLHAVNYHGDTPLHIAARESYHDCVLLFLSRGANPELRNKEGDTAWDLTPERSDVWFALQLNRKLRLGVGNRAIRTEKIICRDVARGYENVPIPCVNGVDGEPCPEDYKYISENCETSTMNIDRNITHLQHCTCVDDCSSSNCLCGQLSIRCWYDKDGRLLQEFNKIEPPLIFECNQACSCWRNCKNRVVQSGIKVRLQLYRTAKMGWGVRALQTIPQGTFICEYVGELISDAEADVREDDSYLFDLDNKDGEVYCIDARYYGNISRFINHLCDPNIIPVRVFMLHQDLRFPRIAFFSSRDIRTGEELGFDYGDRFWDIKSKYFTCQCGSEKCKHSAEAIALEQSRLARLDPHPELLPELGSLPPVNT
Assay: qHTS Assay for Inhibitors of Histone Lysine Methyltransferase G9a; note: nearly all actives have a fitted effect of over 75% in size
Details: G9a H3K9 monomethylation, AlphaScreen, 2 h; activity, negative = inhibition: at 59 µM (top of the series) unless noted
Excerpt: Methylated lysines, on the N-terminal tails of histone proteins serve as epigenetic markers to recruit factors that can then modify local chromatin structure to lead to functional consequences. G9a and other members of the SUV39 family of the SET domain-containing superfamily of histone lysine methyltransferases (HMT) have been identified to specifically methylate Lys9 of histone H3 (H3K9). G9a catalyzes the mono- and di-methylation of H3K9 in mammalian euchromatic regions, where the resulting H3K9me2 is indicative of transcriptional repression. […] The inhibition of G9a will result in transcriptional activation and work synergistically with DNA methyltransferase and histone deacetylase inhibitors, to kill cancer cells. This qHTS assay for identification of G9a inhibitors is a chemiluminescence based AlphaScreen (PerkinElmer). Methylation of biotinylated-histone peptide is measured through specific antibody-based detection, in conjunction with streptavidin-coated donor and anti-IgG antibody-coated acceptor beads. The method is particularly well suited for detection of inhibitors acting by the desired histone peptide competitive mechanism and is applicable to testing other HMTs. Although AlphaScreen has significant advantages with its utility in a variety of epigenetic target assays, the primary screening data provided in this deposition should be used with caution due to the prevalence of screening artifacts. An AlphaScreen counterscreen is highly recommended to be run against any putative actives to eliminate non specific artifacts. Alternatively, one can use other AlphaScreen assays in PubChem to filter out promiscuous hits. Quinn et al. A chemiluminescence-based method for identification of histone lysine methyltransferase inhibitors. Mol Biosyst 6(5): 782-8. 2010. PMID: 20567762 [2] Baell,Holloway. New substructure filters for removal of pan assay interference compounds (PAINS) from screening libraries and for their exclusion in bioassays. J Med Chem. 53(7):2719-40. 2010. PMID: 20131845 NIH Molecular Libraries Probe Production Network [MLPCN] NIH Chemical Genomics Center [NCGC] Structural Genomics Consortium (SGC) NIH Grant: 5U54 MH084681-02
To each well of a 1,536w plate, 2ul of HMT enzyme (final 20nM) were added, using a nanoliter dispenser. The G9a- and GLP-inhibitor BIX-01294 (CID: 25150857) are used as an intraplate control, with a 16-point titration in duplicate. A Kalypsys pin-tool transferred 23nl of library compound solution in DMSO to each well. Following a 15 min incubation of enzyme with compounds at room temperature, 1ul mixture of b-H3K9 peptide substrate (final 500nM) and SAM cofactor (final 20uM) were added. Reactions were allowed to proceed at room temperature for 2 hours. Methylated b-H3K9 peptide product was detected with 0.5 ug/mL rabbit polyclonal anti-monomethyl histone H3K9 antibody (Abcam Inc., Cambridge, MA) and 20 ug/mL each streptavidin-coated donor and anti-rabbit IgG acceptor AlphaScreen beads. Antibody and beads were added in a 1ul dispense, for a final volume of 4ul, and plates were incubated, protected from the light, for 10 min at room temperature. Microplates were then read on an EnVision multilabel plate reader using the 1,536 plate HTS AlphaScreen aperture (excitation time 80 ms, measurement time 240 ms).
% is set by controls: 0 for no effect and ±100 for the full control effect; potency is the fitted concentration of half-maximal effect; tags give direction and shape of the fitted curve.

| SMILES | Potency | activity, negative = inhibition |
| --- | --- | --- |
| CCC1OC2(C)OC(=N)C1(C#N)C(C#N)(C#N)C2c1ccccc1 (stereo unspecified) | inconclusive: 28.2 µM [inhibitor, single point] |  |
| CCCCN(C(=O)CN1C(=O)C2CC=CCC2C1=O)c1c(N)n(CCC)c(=O)[nH]c1=O (stereo unspecified) |  | inconclusive: -65.5% [inhibitor] [at 12.7 µM] |
| CC1CCN(S(=O)(=O)c2ccc3c(c2)CCN3C(=O)Nc2ccc(Br)cc2F)CC1 | inactive |  |
| C=C1c2ccccc2NC(=O)N1c1ccc(C)cc1 | active: 8.91 µM |  |
| COc1cc(-c2nc(-c3ccc(NC(=O)c4ccc5c(c4)OCO5)cc3)no2)cc(OC)c1OC | inconclusive: 0.562 µM [inhibitor, full curve, poor fit] |  |
| Cc1cccc(NC(=O)N2CCC(CN3CCCCCC3)CC2)c1C | inconclusive: 35.5 µM [inhibitor, partial curve, poor fit] |  |
| CC(C)(C)NC(=S)NC(=O)C12CCC3CC(CC(C3)C1)C2 | inactive |  |
| Cc1cc(N=Nc2ccc3ccccc3c2)ccc1O | active: 35.5 µM |  |
| O=C(CSc1nnc(-c2cccs2)o1)NCC1CN(Cc2ccccc2)CCO1 (stereo unspecified) | active: 3.55 µM |  |
| C=CCN(CC(=O)O)S(=O)(=O)c1ccccc1C(F)(F)F | inconclusive: 15.8 µM [inhibitor, partial curve] |  |
| Cc1[nH]c2ccccc2c1NC(=O)CN1CCN(c2cccc(C(F)(F)F)c2)CC1 | inconclusive: 31.6 µM [inhibitor, single point] |  |
| CC(=O)c1ccc(NC(=O)CSc2nnc3ccc(-c4ccccn4)nn23)cc1 | inactive |  |
| CSc1ccccc1C(=O)NCc1ccc(S(N)(=O)=O)cc1 | inconclusive: 8.91 µM [inhibitor, partial curve, poor fit] |  |
| CCN1CCN(CCC2Oc3cc([N+](=O)[O-])ccc3NC2=O)CC1 (stereo unspecified) | inconclusive: 89.1 µM [inhibitor, single point] |  |
| CSc1nc(SCCO)c2sc3nc(-c4ccco4)c4c(c3c2n1)CC(C)(C)OC4 | inconclusive: 12.6 µM [inhibitor, partial curve, poor fit] |  |
| Cc1ccc(C)c(OCC(=O)Nc2ccc(C(=O)O)cc2NC(=O)COc2cc(C)ccc2C)c1 | inconclusive: 79.4 µM [inhibitor, single point] |  |
| COc1ccc(NS(=O)(=O)NC(=O)c2cn(C)c3ccccc23)cc1 | inconclusive: 79.4 µM [inhibitor, single point] |  |
| CCOC(=O)c1c(CN2CCOCC2)n(-c2ccccc2)c2cc(Br)c(OC)cc12 | inconclusive: 56.2 µM [inhibitor, partial curve, poor fit] |  |
| CN1/C(=C\C(=O)COC(=O)c2nccnc2N)C(C)(C)c2ccccc21 |  | inactive: -8.91% [at 0.501 µM] |
| CCCc1cc(C(=O)N2CCCC(Cc3cccc(Cl)c3)(C(=O)OCC)C2)n(C)n1 (stereo unspecified) | inactive |  |
| CCCCn1c(N)c(N(CC(C)C)C(=O)c2cc(S(=O)(=O)N3CCCCC3)ccc2C)c(=O)[nH]c1=O | inconclusive: 89.1 µM [inhibitor, single point] |  |
| Cc1ccc(C)c(N2CCN(C(=O)C(CC(C)C)NS(=O)(=O)c3ccc4nc(C)sc4c3)CC2)c1 (stereo unspecified) | inactive |  |

| SMILES | Potency | activity, negative = inhibition |
| --- | --- | --- |
| CCc1ccc(CC2S/C(=C(\C#N)C(C)=O)NC2=O)cc1 (stereo unspecified) | inconclusive: 39.8 µM [inhibitor, partial curve, poor fit] |  |
| Cc1cc(F)ccc1NC(=O)CCn1nc(C)c(S(=O)(=O)N2CCCCC2)c1C | inactive |  |
| C/C=C/c1cc(CN2CCN(c3ccccc3)CC2)c(O)c(OC)c1 | inconclusive: 50.1 µM [inhibitor, partial curve, poor fit] |  |
| COc1ccc(N2CCC(CNC(=O)Nc3ccc(OC)cc3OC)C2)cc1 (stereo unspecified) | inconclusive: 1.78 µM [inhibitor, partial curve, poor fit] |  |
| CCN(CC(=O)Nc1ccc(NC(C)=O)cc1)C(=O)c1cccc(S(=O)(=O)N2c3ccccc3CC2C)c1 (stereo unspecified) | inconclusive: 50.1 µM [inhibitor, partial curve] |  |
| CCN1CCN(C(=O)C2=CC(c3ccc(C)cc3)=NS(=O)(=O)N2C)CC1 | inconclusive: 89.1 µM [inhibitor, single point] |  |
| COc1ccc(S(=O)(=O)N(CCc2ccccc2)CC(=O)O)cc1 | inactive |  |
| Cc1ccc(S(=O)(=O)NCCn2cnc([N+](=O)[O-])n2)cc1 | inconclusive: 89.1 µM [inhibitor, partial curve, poor fit] |  |
| Cn1cccc1/C=N/n1c(-c2ccc(Cl)cc2Cl)n[nH]c1=S |  | inconclusive: -117% [inhibitor] [at 12.7 µM] |
| Cc1cccc(-n2cnc3cc(C(=O)N4CCc5ccccc54)ccc32)c1 | inactive |  |
| Cc1cc2cc(CN(CC3CCCO3)C(=S)NCc3ccco3)c(=O)[nH]c2cc1C (stereo unspecified) | inconclusive: 79.4 µM [inhibitor, single point] |  |
| COc1ccc(-c2nn(-c3ccccc3)cc2C(=O)O)cc1 | inconclusive: 89.1 µM [inhibitor, single point] |  |
| Cc1ccc(C(C)C)c(OCC(=O)NNC(=O)CC2OC(=O)c3ccccc32)c1 (stereo unspecified) | inactive |  |
| CCOc1cc(/C=C2\N=C(SCC)SC2=O)cc([N+](=O)[O-])c1OC(C)=O | active: 10 µM |  |
| CC(=O)Nc1ccc(NC(=O)C(C)Sc2nc3ccccc3c(=O)n2Cc2ccco2)cc1 (stereo unspecified) | active: 56.2 µM |  |
| C#CC[N+]1(CC#Cc2cccc(C)c2)CCCCC1 | inconclusive: 89.1 µM [inhibitor, partial curve, poor fit] |  |
| O=C(CN(c1ccccc1)S(=O)(=O)c1ccccc1[N+](=O)[O-])NN=C1CCCCCCC1 | inconclusive: 5.62 µM [inhibitor, single point] |  |
| COc1cc(/C=N/NC(=S)NCCN2CCOCC2)cc(OC)c1O | inconclusive: 22.4 µM [inhibitor, single point] |  |
| COc1cccc(-c2nc(SCC(=O)Nc3ccc4c(c3)OCCO4)c(-c3ccc(C)cc3)[nH]2)c1 | inconclusive: 12.6 µM [inhibitor, partial curve, poor fit] |  |
| O=C(CN1C(=O)/C(=C2\SC(=S)N(CCS(=O)(=O)O)C2=O)c2ccccc21)Nc1cccc(Br)c1 | active: 8.91 µM |  |
| O=C(Nc1cc(F)ccc1F)C1CCN(S(=O)(=O)c2cccc3nonc23)CC1 | inconclusive: 0.141 µM [inhibitor, partial curve, poor fit] |  |
| O=c1[nH]c2c(cc1CNCCN1CCOCC1)c(-c1cccc(F)c1)nn2-c1ccccc1 | inactive |  |

| SMILES | Potency | activity, negative = inhibition |
| --- | --- | --- |
| CC(C)c1ccc(N2CCN(C(=O)c3ccccc3NC(=O)/C=C(\C(=O)O)c3ccccc3)CC2)cc1 | inconclusive: 56.2 µM [inhibitor, partial curve, poor fit] |  |
| O=C(Nc1ccc(N2CCOCC2)cc1)c1ccc2c(c1)OCO2 | inconclusive: 44.7 µM [inhibitor, partial curve, poor fit] |  |
| CCC(=O)Nc1nc2n(n1)C(c1ccc(OC)cc1)C=C(c1ccccc1)N2 (stereo unspecified) | inconclusive: 2.51 µM [inhibitor, partial curve, poor fit] |  |
| O=c1nc(N2CCOCC2)ccn1-c1nc(-c2ccccc2)oc1-c1ccccc1 | inconclusive: 44.7 µM [inhibitor, partial curve] |  |
| Cn1c(=O)c2c(nc(CN3CCN(Cc4ccccc4)CC3)n2Cc2cccc(Cl)c2)n(C)c1=O | active: 39.8 µM |  |
| COc1ccc(C)cc1NC(=O)CCN1CC(C)OC(C)C1 (stereo unspecified) | inconclusive: 79.4 µM [inhibitor, partial curve, poor fit] |  |
| CCCCOc1ccc(NC(=O)[C@@H]2CCCN2C(=O)C2CCN(S(=O)(=O)c3ccc(C)cc3)CC2)cc1 | inconclusive: 89.1 µM [inhibitor, single point] |  |
| Cc1ccc(OCCCCNC2CCCCC2)c(C)c1 | active: 14.1 µM |  |
| O=C(NCCN1CCCC1)c1ccc(Br)cc1 |  | inactive: -10.7% [at 0.501 µM] |
| CCCN1C(=O)/C(=C/c2cc(C)n(C)c2C)SC1=Nc1ccc(OCC)cc1 |  | inactive: 36% [at 12.7 µM] |
| CC(/C=C1\SC(=S)N(NC(=O)c2ccc(O)cc2)C1=O)=C\c1ccccc1 | inconclusive: 7.08 µM [inhibitor, full curve, poor fit] |  |
| CC(=O)C1=C(S(=O)(=O)c2ccc(C)cc2)CS(=O)(=O)C1 | active: 1.26 µM |  |
| Cc1cnc(NC(=O)C2COc3ccccc3O2)s1 (stereo unspecified) | active: 35.5 µM |  |
| Cc1cc(NCc2ccccn2)ccc1Br | active: 25.1 µM |  |
| CCc1cccc(C)c1NC(=O)CSc1nc2c(c(=O)[nH]1)CCC2 | inactive |  |
| CCCN1C(=O)C(Cc2nc3ccccc3c(=O)n2-c2ccc(OC)cc2)c2cc(C)ccc21 (stereo unspecified) | inconclusive: 11.2 µM [inhibitor, partial curve, poor fit] |  |
| CCOC(=O)N1CCC(n2c(=S)[nH]c3ccccc3c2=O)CC1 | inconclusive: 10 µM [inhibitor, partial curve, poor fit] |  |
| O=C(/C=C/Nc1ccccc1C(=O)O)c1cccs1 | inconclusive: 39.8 µM [inhibitor, single point] |  |
| CCC1CCc2c(sc(NC(=O)c3cccnc3)c2C(N)=O)C1 (stereo unspecified) | inconclusive: 35.5 µM [inhibitor, partial curve, poor fit] |  |
| CCCCNC(=O)c1ccc2c(c1)NC(=O)C(CS(=O)(=O)Cc1ccc(C)cc1)N2 (stereo unspecified) | inconclusive: 25.1 µM [inhibitor, single point] |  |
| CCC1=NC(c2ccccc2Cl)N(O)C1(C)C (stereo unspecified) | inactive |  |
| CCN(CC)CCCNc1oc(-c2cccc(Cl)c2)nc1C#N |  | inconclusive: -57.6% [inhibitor] |
